Assay results published in PubChem BioAssay AID504333 (National Center for Advancing Translational Sciences (NCATS), 2011).
About 16,000 (4.4%) of roughly 360,000 compounds were called active. The inconclusive results got no clear call from the source; some entries with a clear call stand among them for comparison. Calls come from the whole dose curve; as a rule, active = well fitted inhibition curve with a large enough effect; inconclusive = small, poorly fitted or top-dose-only effect; inactive = no such curve, though single readings can be large or run the other way. A potency beside an inconclusive call is a rough fit, not a confirmed value.

molecular target: Bromodomain adjacent to zinc finger domain protein 2B (Homo sapiens) (UniProt Q9UIF8); experiment: qHTS Assay for Inhibitors of BAZ2B; details: AlphaScreen BAZ2B-H3K14Ac peptide displacement; activity change, negative = inhibition: at 114 µM (top of the series) unless noted; note: nearly all actives have a fitted effect of over 60% in size
UniProt Q9UIF8, sequence (Q9UIF8 whole entry, looked up, the tested form may be a part): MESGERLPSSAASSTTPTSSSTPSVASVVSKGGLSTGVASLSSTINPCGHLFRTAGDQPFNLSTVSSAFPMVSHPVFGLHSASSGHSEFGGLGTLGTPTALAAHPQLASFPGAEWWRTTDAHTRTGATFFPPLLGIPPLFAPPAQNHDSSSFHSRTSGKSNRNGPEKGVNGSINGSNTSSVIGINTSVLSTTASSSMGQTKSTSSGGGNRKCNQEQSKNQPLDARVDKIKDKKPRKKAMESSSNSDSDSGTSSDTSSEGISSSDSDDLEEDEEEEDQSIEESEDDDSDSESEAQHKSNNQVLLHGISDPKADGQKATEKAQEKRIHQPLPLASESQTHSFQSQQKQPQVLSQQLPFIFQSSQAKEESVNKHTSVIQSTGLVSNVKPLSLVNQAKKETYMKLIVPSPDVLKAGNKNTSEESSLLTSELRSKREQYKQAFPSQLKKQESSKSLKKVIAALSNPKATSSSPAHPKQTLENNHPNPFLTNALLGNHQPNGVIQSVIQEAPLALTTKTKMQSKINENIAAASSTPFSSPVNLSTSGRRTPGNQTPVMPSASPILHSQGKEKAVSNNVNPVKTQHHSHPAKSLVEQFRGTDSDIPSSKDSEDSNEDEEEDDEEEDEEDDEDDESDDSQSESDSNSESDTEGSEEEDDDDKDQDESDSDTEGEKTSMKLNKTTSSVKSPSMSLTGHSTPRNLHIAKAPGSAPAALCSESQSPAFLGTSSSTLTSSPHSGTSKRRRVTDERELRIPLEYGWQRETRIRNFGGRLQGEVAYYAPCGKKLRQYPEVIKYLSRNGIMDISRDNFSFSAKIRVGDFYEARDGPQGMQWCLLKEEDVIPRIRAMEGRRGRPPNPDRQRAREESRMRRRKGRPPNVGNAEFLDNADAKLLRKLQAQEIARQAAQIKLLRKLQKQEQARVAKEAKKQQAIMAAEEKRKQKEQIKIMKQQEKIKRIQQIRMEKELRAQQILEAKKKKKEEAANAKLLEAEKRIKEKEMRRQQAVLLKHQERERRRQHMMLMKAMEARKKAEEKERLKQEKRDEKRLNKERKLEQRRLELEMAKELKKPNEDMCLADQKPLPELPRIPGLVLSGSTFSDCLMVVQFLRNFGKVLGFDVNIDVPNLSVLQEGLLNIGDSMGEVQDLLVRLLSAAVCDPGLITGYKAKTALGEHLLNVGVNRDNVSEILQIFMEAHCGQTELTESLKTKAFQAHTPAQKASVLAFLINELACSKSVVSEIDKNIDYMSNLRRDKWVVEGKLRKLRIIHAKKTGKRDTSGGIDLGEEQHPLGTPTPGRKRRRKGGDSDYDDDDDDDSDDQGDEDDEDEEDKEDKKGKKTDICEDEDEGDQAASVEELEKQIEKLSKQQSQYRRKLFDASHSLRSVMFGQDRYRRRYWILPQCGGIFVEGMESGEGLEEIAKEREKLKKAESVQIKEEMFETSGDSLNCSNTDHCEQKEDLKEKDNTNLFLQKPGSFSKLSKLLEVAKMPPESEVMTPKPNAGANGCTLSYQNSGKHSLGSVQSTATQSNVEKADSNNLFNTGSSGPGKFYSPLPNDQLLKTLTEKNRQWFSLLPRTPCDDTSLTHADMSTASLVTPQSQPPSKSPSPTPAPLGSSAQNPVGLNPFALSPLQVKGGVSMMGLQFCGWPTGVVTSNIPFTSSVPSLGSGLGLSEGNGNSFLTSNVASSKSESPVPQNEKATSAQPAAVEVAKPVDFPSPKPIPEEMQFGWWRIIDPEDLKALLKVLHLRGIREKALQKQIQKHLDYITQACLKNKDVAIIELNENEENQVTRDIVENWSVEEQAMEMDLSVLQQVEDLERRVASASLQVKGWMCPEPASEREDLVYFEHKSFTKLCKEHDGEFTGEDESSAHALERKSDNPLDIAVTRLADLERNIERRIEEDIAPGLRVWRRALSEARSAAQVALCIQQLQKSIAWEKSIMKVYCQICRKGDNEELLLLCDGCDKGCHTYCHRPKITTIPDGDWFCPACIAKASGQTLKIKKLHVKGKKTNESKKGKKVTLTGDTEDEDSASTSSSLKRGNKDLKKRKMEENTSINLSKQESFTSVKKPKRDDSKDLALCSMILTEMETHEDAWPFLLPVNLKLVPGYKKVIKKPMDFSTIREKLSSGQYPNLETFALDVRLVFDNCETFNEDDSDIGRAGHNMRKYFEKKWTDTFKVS
Outline: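 AlphaScreen displacement: compounds (up to 110uM) incubated 30 min at room temperature with a preformed 50 nM BAZ2B/50 nM biotinylated H3K14Ac peptide complex in PBS pH 7.4 with Tween-20. Donor and acceptor beads at 10 ug/mL final added, 20 min light-protected before reading.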
% is set by controls: 0 for no effect and ±100 for the full control effect; potency is the fitted concentration of half-maximal effect; tags give direction and shape of the fitted curve.

| SMILES | Potency | activity change, negative = inhibition |
| --- | --- | --- |
| COc1ccc(NC(=O)[C@H](C)NC(N)=O)cc1S(=O)(=O)Nc1cc(C)ccc1Br | inconclusive: 100 µM [inhibitor, single point] |  |
| O=C(CSc1nnc2ccccn12)N1CCc2ccccc2C1 |  | inactive: 7.23% |
| C=CCn1c(C)cc(C2=NNC(=NCC)SC2)c1C | inconclusive: 50.1 µM [inhibitor, partial curve] |  |
| CCOC(=O)c1[nH]c(=O)[nH]c1CSc1ccccn1 |  | inactive: -8.11% |
| O=C1N(Cc2cccc(Cl)c2)C[C@@H]2C[C@@H](c3cccn3-c3cccnc3)N3CCC[C@@]123 | inconclusive: 50.1 µM [inhibitor, partial curve] |  |
| CCOc1ccc(C2=NNC(c3cccnc3)=Nc3ccc(OC)cc32)cc1 | inconclusive: 39.8 µM [inhibitor, partial curve] |  |
| O=[N+]([O-])c1cccc(/C=C/c2ccncc2)c1 | inconclusive: 79.4 µM [inhibitor, single point] |  |
| O=S(=O)(c1ccccc1)N1CCN(C(c2ccccc2)c2ccc(OC(F)(F)F)cc2)CC1 (stereo not drawn) |  | inactive: -17.4% |
| Cc1cccc(C(=O)OCC(=O)N(C)c2ccccc2)c1C |  | inactive: 6.9% |
| CC(=O)c1ccc(OCCCC(=O)OCC(=O)Nc2ccc3[nH]c(=O)[nH]c3c2)cc1 |  | inactive: 5.61% |
| CCCN(CCC)C(=O)Cn1c(SCc2cccc(C(F)(F)F)c2)nc2cccnc21 |  | inactive: 1.33% |
| S=c1[nH]ncn1-c1ccccn1 | inconclusive: 89.1 µM [inhibitor, single point] |  |
| O=C(c1ccc(OCC2CCCO2)cc1)N1CCN(S(=O)(=O)c2cccc(F)c2)CC1 (stereo not drawn) | inconclusive: 79.4 µM [inhibitor, single point] |  |
| Cc1ccc(NC(=O)c2nc[nH]c2C(=O)N2CCN(C(=O)OC(C)(C)C)CC2)cc1 | inconclusive: 7.08 µM [inhibitor, full curve] |  |
| Cc1ccc2nc(N(CCCN(C)C)C(=O)CN3C(=O)c4ccccc4C3=O)sc2c1 | inconclusive: 39.8 µM [inhibitor, partial curve] |  |
| COc1ccc(-c2cn3cccnc3n2)cc1NC(=O)C(C)Oc1ccccc1 (stereo not drawn) | inconclusive: 56.2 µM [inhibitor, partial curve] |  |
| CCOc1cccc(C(=O)NC(=S)Nc2ccc(N3CCCC3)cc2)c1 | active: 8.91 µM |  |
| COC(=O)c1cccc(C23CC4(C2)[C@H](CN(Cc2ccc(C(F)(F)F)cc2)[C@@H]4c2ccccc2)C3c2ccccc2)c1 (stereo partly drawn) |  | inactive: -5.16% |
| O=C(CSc1nccn1C1CCCC1)Nc1cccc(F)c1 | active: 79.4 µM |  |
| CCOC(=O)c1c(NC(=O)C2=C(C)NC(=S)NC2c2ccccc2C(F)(F)F)sc(C)c1C (stereo not drawn) |  | inactive: -26.9% |
| Cc1cccc(N2CCN(c3ccc(C(=O)O)cc3NC(=O)c3cccc(Cl)c3)CC2C)c1 (stereo not drawn) | inconclusive: 50.1 µM [inhibitor, partial curve] |  |
| CCOc1ccc(N(C)Cc2cc(=O)oc3ccc(OCC)cc23)cc1 | active: 17.8 µM |  |
| C[C@@H]1O[C@@H](O[C@H]2[C@H](O)[C@@H](O)[C@H](Oc3c(-c4ccc(O)c(O)c4)oc4cc(O)cc(O)c4c3=O)O[C@@H]2CO)[C@H](O)[C@H](O)[C@H]1O |  | inactive: -36.6% |
| NC(=O)NC(=O)CC1S/C(=N/N=C2/NC(=O)CS2)NC1=O (stereo not drawn) | active: 20 µM |  |
| CCN(CC(=O)Nc1ccccc1C(F)(F)F)C(=O)C1CCC1 |  | inactive: -4.01% |

| SMILES | Potency | activity change, negative = inhibition |
| --- | --- | --- |
| CC(=O)c1cccc(NC(=O)c2nc3ccccc3n(C)c2=O)c1 |  | inactive: -12.1% |
| COc1ccc(CC(=O)Nc2ccc(-c3nnc(-c4ccccc4)o3)cc2)cc1 | inconclusive: 100 µM [inhibitor, single point] |  |
| COc1cccc(CNC(=O)c2ccc3nc(-c4ccc(F)cc4)c(-c4ccc(F)cc4)nc3c2)c1 |  | inactive: -10.8% |
| CCN=C1S/C(=C/c2ccc(-c3ccc(F)cc3)o2)C(=O)N1CC |  | inactive: -32.5% |
| CCOC(=O)c1c(-c2ccc(C)o2)csc1NC(=O)CSc1ncn[nH]1 | inconclusive: 50.1 µM [inhibitor, partial curve] |  |
| COc1cnc(-c2ccccn2)nc1Oc1ccccc1 | active: 25.1 µM |  |
| Cc1ccc2nc(SC(C)C(=O)Nc3cccc([N+](=O)[O-])c3)[nH]c2c1 (stereo not drawn) | inconclusive: 50.1 µM [inhibitor, partial curve] |  |
| CCOc1ccc(C2C(C(N)=O)=C(C)Nc3nc(SCc4ccccc4)nn32)cc1 (stereo not drawn) | inconclusive: 89.1 µM [inhibitor, single point] |  |
| COc1ccc(-c2csc(Cc3nc(O)cs3)n2)cc1 | inconclusive: 79.4 µM [inhibitor, partial curve] |  |
| CN(C)c1ccc(/C=C2/C(=O)N(c3ccc([N+](=O)[O-])cc3)N=C2N2CCOCC2)cc1 | active: 7.08 µM |  |
| O=C(CCl)c1ccc(Cc2ncc(C(F)(F)F)cc2Cl)s1 | inconclusive: 79.4 µM [inhibitor, partial curve] |  |
| CCOc1ccc(NC(=O)CCN2CCN(S(=O)(=O)c3ccc(F)cc3)CC2)cc1 | inconclusive: 35.5 µM [inhibitor, partial curve] |  |
| O=C(NCc1ccc2c(c1)CCN2C(=O)c1ccccc1)c1cc2ccccc2[nH]1 | inconclusive: 70.8 µM [inhibitor, single point] |  |
| CCNS(=O)(=O)c1ccc(CCC(=O)N2CCN(c3ccccc3)CC2)cc1 |  | inactive: -20.1% |
| Fc1ccccc1/C=N/Nc1nn[nH]n1 | inconclusive: 89.1 µM [inhibitor, single point] |  |
| O=C1CC(=C(c2ccccc2)c2ccccc2)C(=O)N1CCCCN1CCN(c2cccc(Cl)c2)CC1 | inconclusive: 79.4 µM [inhibitor, single point] |  |
| CN(C)c1ccc(NC(=O)CSc2nnc(-c3ccco3)c(-c3ccco3)n2)cc1 | active: 25.1 µM |  |
| O=C(C1CCN(S(=O)(=O)c2cccs2)CC1)N1CCN(c2ccccc2)CC1 | inconclusive: 5.62 µM [inhibitor, single point] |  |
| COc1ccc(N2CCN(c3ncnc4c3[nH]c3ccccc34)CC2)cc1 | inconclusive: 31.6 µM [inhibitor, full curve] |  |
| CCc1nnc(SCc2c(F)cccc2Cl)c2cc3sccc3n12 |  | inactive: -6.2% |
| COC(=O)CCCC1=CC2=CC(=O)C(C)(OC(=O)c3cccs3)C(=O)C2=CN1CC(C)C (stereo not drawn) |  | inactive: -15.3% |
| O=C(CNC(=O)[C@@H]1Cc2ccccc2CN1)NCc1ccco1 |  | inactive: -12% [at 57.1 µM] |
| CCOc1ccc(/C(CCC(=O)O)=N/NC(=S)NC(C)C)cc1 |  | inactive: -26.3% |
| O=C(COC(=O)CCc1ccccc1)Nc1ncc(Cl)cc1Cl |  | inactive: 7.73% |
| CSc1ccc(OC2CCN(Cc3ccccc3)CC2)cc1 |  | inactive: -38.3% |

| SMILES | Potency | activity change, negative = inhibition |
| --- | --- | --- |
| Fc1ccc(-c2[nH]ncc2CN2CCN(c3ccc(F)cc3)CC2)cc1 |  | inactive: -38.6% |
| COc1ccccc1N1CCN(/N=C/c2cccc(OC)c2O)CC1 | inconclusive: 50.1 µM [inhibitor, partial curve] |  |
| CC(=O)Nc1ccc(SCc2c(C)noc2C)cc1 |  | inactive: 1.27% |
| CC(C)(C)c1cc(-c2n[nH]c(=S)n2-c2ccc(Cl)cc2)n[nH]1 | inconclusive: 63.1 µM [inhibitor, partial curve, poor fit] |  |
| CN1C(=CC=C2C=C(I)C(=O)C(I)=C2)C(C)(C)c2ccccc21 | inconclusive: 1.78 µM [inhibitor, full curve] |  |
| O=C(Nc1cc(Cl)ccc1N1CCOCC1)C1=COCCO1 |  | inactive: 9.13% |
| CCCC[n+]1ccn(-c2nc3ccccc3nc2[N-]S(=O)(=O)c2ccc(Cl)cc2)c1 | inconclusive: 89.1 µM [inhibitor, single point] |  |
| Cc1csc(Nc2ccc(Cl)cc2)[n+]1-c1ccc(Cl)cc1 | active: 12.6 µM |  |
| COc1ccc(OC)c(C2Nc3c(Cl)ccc(C(=O)O)c3C3C=CCC32)c1 (stereo not drawn) |  | inactive: -26.3% |
| CC1(C)CC2CC(C)(CN2Cc2cccc([N+](=O)[O-])c2)C1 (stereo not drawn) | inconclusive: 79.4 µM [inhibitor, single point] |  |
| COCC(C)NC(=O)CSc1nc2nn(-c3ccccc3)c(=O)c-2c2n1CCCCC2 (stereo not drawn) | inconclusive: 79.4 µM [inhibitor, single point] |  |
| Cc1cccc(C2C3=C(Nc4[nH]n(-c5ccccc5)c(=O)c42)c2ccccc2C3=O)c1 (stereo not drawn) | active: 31.6 µM |  |
| CN(C(=O)CSc1nnc(-c2ccccc2F)n1N)C1CCCCC1 |  | inactive: -5.44% |
| CC1=C(C(=O)Nc2ccccc2C)C(c2ccncc2)n2nc(SCc3ccccc3Cl)nc2N1 (stereo not drawn) | inconclusive: 89.1 µM [inhibitor, single point] |  |
| COc1cc(C(=O)Nn2cnnc2)ccc1OC(F)F |  | inactive: 3.18% |
| CC(=N\Nc1ccc(Cl)cc1)/C(=N/O)C(=O)Nc1ccccc1 | inconclusive: 89.1 µM [inhibitor, single point] |  |
| CC(C)CN1CCN(Cc2cccn2-c2ccccn2)CC1CCO (stereo not drawn) | inconclusive: 89.1 µM [inhibitor, single point] |  |
| CC(C)(C)c1ccc(C(=O)NCCCN2CCN(CCCNC(=O)c3ccc(C(C)(C)C)cc3)CC2)cc1 | inconclusive: 70.8 µM [inhibitor, single point] |  |
| CC1c2cc3c(cc2CCN1C(=O)c1ccc(Cl)cc1)OCCCO3 (stereo not drawn) | inconclusive: 89.1 µM [inhibitor, single point] |  |
| CCSc1ncc(C)cc1[N+](=O)[O-] | inconclusive: 56.2 µM [inhibitor, partial curve] |  |
| COc1ccc(CN2CCCC(N3CCc4ccccc4C3)C2)c(O)c1 (stereo not drawn) | inconclusive: 89.1 µM [inhibitor, single point] |  |
| CCOC(=O)N1CCC2(CC1)C(C(=O)C13CC4CC(CC(C4)C1)C3)C2(C#N)C#N (stereo not drawn) |  | inactive: 2.89% |
| COC(=O)c1cn(C)c2ccc(S(=O)(=O)N3CCCC3)cc2c1=O | inconclusive: 89.1 µM [inhibitor, single point] |  |
